Source: PMC7819943, “Rice protein-binding microarrays: a tool to detect cis-acting elements near promoter regions in rice”
This is one part of the list.

These sequences were tested against T1, OsWOX13 (Oryza sativa, UniProt Q5QMM3 1-267) (assay: protein-binding microarray (RPBM); PBS, 2% BSA, 51.3 ng/ul salmon testes DNA, 50 uM zinc acetate, 200 nM TF, 25 C, 1 h; high values mean tight binding). Settings: protein: recombinant; tags: N-terminal polyhistidine and DsRed monomer fusion (pET32a); label: CyDye5-dUTP incorporated in the synthesized complementary strand; 3' TTTTT single-stranded linker to array surface; dsDNA, one strand shown.
T1 sequence: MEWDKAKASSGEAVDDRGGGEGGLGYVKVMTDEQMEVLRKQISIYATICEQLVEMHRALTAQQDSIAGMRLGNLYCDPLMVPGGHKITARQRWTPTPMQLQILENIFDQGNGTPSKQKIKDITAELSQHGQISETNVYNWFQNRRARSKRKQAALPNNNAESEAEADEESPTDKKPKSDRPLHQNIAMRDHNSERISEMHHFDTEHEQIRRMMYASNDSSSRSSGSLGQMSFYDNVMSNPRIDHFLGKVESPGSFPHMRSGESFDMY
Method in brief: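 Transcription factors were each fused at the N-terminus to a polyhistidine tag plus DsRed and expressed in E. coli BL21-CodonPlus before Ni–NTA purification. Binding to a double-stranded custom Agilent array was carried out with 200 nM protein at 25 °C for 1 h in PBS, 2% BSA, salmon testes DNA and 50 µM zinc acetate. The binding signal is per-feature fluorescence intensity, in arbitrary units, on an Axon 4000B scanner.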

Sequence | binding signal
AACAAATTGGAGTAATCAATGGGCTATACTATTAAACTTGCGGAGTCACCTAGTGCAG | 15400 fluorescence intensity (a.u.)
CATATAGATTACCAAATAAATTCTCTAACAAGAATAGGTGCGGAGTCACCTAGTGCAG | 13700 fluorescence intensity (a.u.)
ATATAATATAATTATATCAATGCACAGCATATAGCTTATCCGGAGTCACCTAGTGCAG | 11500 fluorescence intensity (a.u.)
TTAACTTTACACATTTTAATTGTTGGAGGCTTTCACACGGCGGAGTCACCTAGTGCAG | 3320 fluorescence intensity (a.u.)
GTAAAGGCGAGGGAAATTGATAGGGAGTTTAGTTGGAGATCGGAGTCACCTAGTGCAG | 3150 fluorescence intensity (a.u.)
TAGCTTAGCTCGTATTCGTATAAAACGTAGTACAAGGTTCCGGAGTCACCTAGTGCAG | 61300 fluorescence intensity (a.u.)
ATTTGATTAAATCTCTTAAATTAAGAAACGGCCCAAAATTCGGAGTCACCTAGTGCAG | 18200 fluorescence intensity (a.u.)
GGATGATTTTGTAACTTGATGACAAGTTGAGGGACCTTCGCGGAGTCACCTAGTGCAG | 33100 fluorescence intensity (a.u.)
CACGATGATTGTTTGTATATGGAAACACCAAAATGGTCTACGGAGTCACCTAGTGCAG | 54700 fluorescence intensity (a.u.)
TAATAATTTGGGGAGCTTAATTGCTATCCAGTGATATATACGGAGTCACCTAGTGCAG | 11100 fluorescence intensity (a.u.)
GCTAATTTTGGCCAAGTATCTTTATTTTGTTACAAAAGTTCGGAGTCACCTAGTGCAG | 3770 fluorescence intensity (a.u.)
ACACTGGATTGACCAAGTTCCTATGCATCTTCAAAGTTGCCGGAGTCACCTAGTGCAG | 12500 fluorescence intensity (a.u.)
GAACAATTAACACTCATACCCATCATAGCATCAGACTCAACGGAGTCACCTAGTGCAG | 3480 fluorescence intensity (a.u.)
CTATAACAATCATTCATCATTGTTTGCGTTTATCCCTTCTCGGAGTCACCTAGTGCAG | 5050 fluorescence intensity (a.u.)
CTCTTGATGTATGGATTGAATACAAACTTGACATCCGATACGGAGTCACCTAGTGCAG | 10600 fluorescence intensity (a.u.)
GGTGCTAAATTGGTTGCAGTTTGGACTAATGGTTCTATATCGGAGTCACCTAGTGCAG | 10800 fluorescence intensity (a.u.)
CTCTATTGACTGATGGACTGCCCACTCCTAGCTGGCTAGCCGGAGTCACCTAGTGCAG | 21600 fluorescence intensity (a.u.)
ACTTGTATATTTGTGGATTGATACATTACATATTGATCTACGGAGTCACCTAGTGCAG | 5160 fluorescence intensity (a.u.)
CCAAATTGCCATTGGCTATAGGCCATCCCCTTTGTTTGGCCGGAGTCACCTAGTGCAG | 29600 fluorescence intensity (a.u.)
TACATTAACCTTTAATTGCCTTATGCTGTTAATCATATAGCGGAGTCACCTAGTGCAG | 9700 fluorescence intensity (a.u.)
CCCTCCATCCCCTCAGTCCACTCAATCACCACACCAGCCACGGAGTCACCTAGTGCAG | 3850 fluorescence intensity (a.u.)

Sequence | binding signal
TCAGATTTTATGATAGATTTTGAAGGGCGTAAATAAATAGCGGAGTCACCTAGTGCAG | 5630 fluorescence intensity (a.u.)
TCTAAACTGGTTTATTATCACCCGTCACGGATAACTATTACGGAGTCACCTAGTGCAG | 3260 fluorescence intensity (a.u.)
TTCTTGCCGGAGGAGGGGCAGGGGAGGGAGCCGGGCGGGACGGAGTCACCTAGTGCAG | 4360 fluorescence intensity (a.u.)
CTGGGTTGATTGTTATTTGTAACCGCTGATCTGGCTTGTGCGGAGTCACCTAGTGCAG | 47300 fluorescence intensity (a.u.)
TTAACTGTAACACATCCTGATTTGTTCTTTACATAGCATGCGGAGTCACCTAGTGCAG | 13800 fluorescence intensity (a.u.)
CACACAACTCATGTCTATCAATCATTGCATCCCAACTTGCCGGAGTCACCTAGTGCAG | 13300 fluorescence intensity (a.u.)
GGTTATAGATGATTTGGAGTTAGTAGTCGACTATGCTATTCGGAGTCACCTAGTGCAG | 7060 fluorescence intensity (a.u.)
TAAATTGGAACCATGCCATTATAATTTTGTAAAGTTTGAGCGGAGTCACCTAGTGCAG | 7570 fluorescence intensity (a.u.)
CAAATTCTTGATTTCGTGTTAAATCTGGACAACTAGACTACGGAGTCACCTAGTGCAG | 4850 fluorescence intensity (a.u.)
AAGATTAATTTCTTGATGCTTTGCAGTAACTGGGAACCCCCGGAGTCACCTAGTGCAG | 45500 fluorescence intensity (a.u.)
TGAAATTGGAGCCCAAAACATACTAACCCAAATCTGGCCCCGGAGTCACCTAGTGCAG | 5200 fluorescence intensity (a.u.)
GGTGGGTTGGGCCGTGATTTGTATGGACTTTATTTGTAAGCGGAGTCACCTAGTGCAG | 5260 fluorescence intensity (a.u.)
ATAGCCAATCTAATAGCCAATTCATACAATAATTGCTTACCGGAGTCACCTAGTGCAG | 14500 fluorescence intensity (a.u.)
AGTAGACTTGATTGCAATAGTGTAACCGGATCGGAGTGACCGGAGTCACCTAGTGCAG | 26400 fluorescence intensity (a.u.)
CTTCTAATTTTAGCGTGAACAAAACCCACCATAACCGTACCGGAGTCACCTAGTGCAG | 4730 fluorescence intensity (a.u.)
AACAATTTAATTTATCAATTACAAAAGCTAAATTAGTAATCGGAGTCACCTAGTGCAG | 24000 fluorescence intensity (a.u.)
ACAAATTAATTTTAAGCAACAAATATATCTGTCGGTAGTACGGAGTCACCTAGTGCAG | 32200 fluorescence intensity (a.u.)
AACTATAATTGACAATATTTTCATTTGAGATAGTTTAAGGCGGAGTCACCTAGTGCAG | 40300 fluorescence intensity (a.u.)
TTCTAATTTTCGGGATGTTTGATGTAAAATATGAGGACTACGGAGTCACCTAGTGCAG | 5160 fluorescence intensity (a.u.)
TCTGATTGACTTCTTCCAATTACTCACTCCTGCACGTCGGCGGAGTCACCTAGTGCAG | 48400 fluorescence intensity (a.u.)
AGTAATTTCACGAAATTGGAGCCGATTCCTGGCAGAATATCGGAGTCACCTAGTGCAG | 14200 fluorescence intensity (a.u.)
